# Laboratory results: the supplement of paper PMC8728848
# Some of the results follow.
# B1: Epa3to1 (Candida glabrata) (protein)
# chain: MGSSHHHHHHSSGLVPRGSHMKRELSSQNPFGYPIGCSPQDVAIIPGLTMELYSYPIVSGTPPNCYDASYVDPEYPRTGYLKRKMVGKSTGVTGNLNYKYSVEKACMVKYGNLPAGYNYNEPLTVSNFTMILYGYFKAQTTGLHTFFVNADDLLYINFGAGNAFDCCKREDSKTKLGEYVAYDIWHVDSSKNKVSLFLEKDLYYPIRMFFNNREYDSSLDLSFSVNGATDQISDFSGYLYSVPDQPDTCPAHIGYDTTCR
# Key:
# Assay in all cases: glycan array binding signal (z-score within array); higher = stronger binding
# Details in all cases: glycan notation: IUPAC condensed, linker removed
# [1] = biological target: Fuc(a1-2)[Gal(a1-3)]Gal(b1-4)GlcNAc(b1-2)Man(a1-3)[Fuc(a1-2)[Gal(a1-3)]Gal(b1-4)GlcNAc(b1-2)Man(a1-6)]Man(b1-4)GlcNAc(b1-4)[Fuc(a1-6)]GlcNAc
# Outline: (§1)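 The Consortium for Functional Glycomics database supplied 3228 glycan arrays, of which those lacking an available protein sequence were dropped. The binding signal, a within-array Z-score, was averaged across arrays of the same protein sequence and across linkers. Negative scores can be read as non-binding.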
# [2] = biological target: Fuc(a1-2)[Gal(a1-3)]Gal(b1-4)GlcNAc(b1-3)GalNAc
# Outline: as §1
# [3] = biological target: Fuc(a1-2)[Gal(a1-3)]Gal(b1-4)GlcNAc(b1-3)[Fuc(a1-2)[Gal(a1-3)]Gal(b1-4)GlcNAc(b1-6)]GalNAc
# Outline: as §1
# [4] = biological target: Fuc(a1-2)[Gal(a1-3)]Gal(b1-4)GlcNAc(b1-6)GalNAc
# Outline: as §1
# [5] = biological target: Fuc(a1-2)[Gal(a1-3)]Gal(b1-4)[Fuc(a1-3)]Glc
# Outline: as §1
# [6] = biological target: Fuc(a1-2)[Gal(a1-3)]Gal(b1-4)[Fuc(a1-3)]GlcNAc
# Outline: as §1
# [7] = biological target: Fuc(a1-2)[Gal(a1-3)]Gal(b1-4)[Fuc(a1-3)]GlcNAc(b1-3)GalNAc
# Outline: as §1
# [8] = biological target: Fuc(a1-2)[Gal(a1-4)]Gal(b1-4)GlcNAc
# Outline: as §1
# [9] = biological target: Fuc(a1-2)[GalNAc(a1-3)]Gal
# Outline: as §1
# [10] = biological target: Fuc(a1-2)[GalNAc(a1-3)]Gal(b1-3)GalNAc(a1-3)[Fuc(a1-2)]Gal(b1-4)GlcNAc
# Outline: as §1
# [11] = biological target: Fuc(a1-2)[GalNAc(a1-3)]Gal(b1-3)GalNAc(b1-3)Gal(a1-4)Gal(b1-4)Glc
# Outline: as §1
# [12] = biological target: Fuc(a1-2)[GalNAc(a1-3)]Gal(b1-3)GlcNAc
# Outline: as §1
# [13] = biological target: Fuc(a1-2)[GalNAc(a1-3)]Gal(b1-3)GlcNAc(b1-2)Man(a1-3)[Fuc(a1-2)[GalNAc(a1-3)]Gal(b1-3)GlcNAc(b1-2)Man(a1-6)]Man(b1-4)GlcNAc(b1-4)GlcNAc
# Outline: as §1
# [14] = biological target: Fuc(a1-2)[GalNAc(a1-3)]Gal(b1-3)GlcNAc(b1-2)Man(a1-3)[Fuc(a1-2)[GalNAc(a1-3)]Gal(b1-3)GlcNAc(b1-2)Man(a1-6)]Man(b1-4)GlcNAc(b1-4)[Fuc(a1-6)]GlcNAc
# Outline: as §1
# [15] = biological target: Fuc(a1-2)[GalNAc(a1-3)]Gal(b1-3)GlcNAc(b1-3)GalNAc
# Outline: as §1
# [16] = biological target: Fuc(a1-2)[GalNAc(a1-3)]Gal(b1-3)GlcNAc(b1-6)GalNAc
# Outline: as §1
# [17] = biological target: Fuc(a1-2)[GalNAc(a1-3)]Gal(b1-4)Glc
# Outline: as §1
# [18] = biological target: Fuc(a1-2)[GalNAc(a1-3)]Gal(b1-4)GlcNAc
# Outline: as §1
# [19] = biological target: Fuc(a1-2)[GalNAc(a1-3)]Gal(b1-4)GlcNAc(b1-2)Man
# Outline: as §1
# [20] = biological target: Fuc(a1-2)[GalNAc(a1-3)]Gal(b1-4)GlcNAc(b1-2)Man(a1-3)[Fuc(a1-2)[GalNAc(a1-3)]Gal(b1-4)GlcNAc(b1-2)Man(a1-6)]Man(b1-4)GlcNAc(b1-4)GlcNAc
# Outline: as §1
# [21] = biological target: Fuc(a1-2)[GalNAc(a1-3)]Gal(b1-4)GlcNAc(b1-2)Man(a1-3)[Fuc(a1-2)[GalNAc(a1-3)]Gal(b1-4)GlcNAc(b1-2)Man(a1-6)]Man(b1-4)GlcNAc(b1-4)[Fuc(a1-6)]GlcNAc
# Outline: as §1
# [22] = biological target: Fuc(a1-2)[GalNAc(a1-3)]Gal(b1-4)GlcNAc(b1-3)Gal(b1-4)GlcNAc
# Outline: as §1
# [23] = biological target: Fuc(a1-2)[GalNAc(a1-3)]Gal(b1-4)GlcNAc(b1-3)Gal(b1-4)GlcNAc(b1-3)Gal(b1-4)GlcNAc
# Outline: as §1
# [24] = biological target: Fuc(a1-2)[GalNAc(a1-3)]Gal(b1-4)GlcNAc(b1-3)GalNAc
# Outline: as §1
# [25] = biological target: Fuc(a1-2)[GalNAc(a1-3)]Gal(b1-4)GlcNAc(b1-3)[Fuc(a1-2)[GalNAc(a1-3)]Gal(b1-4)GlcNAc(b1-6)]GalNAc
# Outline: as §1
# [26] = biological target: Fuc(a1-2)[GalNAc(a1-3)]Gal(b1-4)GlcNAc(b1-6)GalNAc
# Outline: as §1
# [27] = biological target: Fuc(a1-2)[GalNAc(a1-3)]Gal(b1-4)[Fuc(a1-3)]GlcNAc
# Outline: as §1
# [28] = biological target: Fuc(a1-2)[GalNAc(a1-3)]Gal(b1-4)[Fuc(a1-3)]GlcNAc(b1-3)GalNAc
# Outline: as §1
# [29] = biological target: Fuc(a1-2)[GalNAc(a1-4)]Gal(b1-4)GlcNAc
# Outline: as §1
# [30] = biological target: Fuc(a1-2)[GalNAc(b1-3)]Gal
# Outline: as §1
# Fuc(a1-3)GlcNAc = biological target: Fuc(a1-3)GlcNAc
# Outline: as §1
# [31] = biological target: Fuc(a1-3)[Gal(b1-4)]Glc6S
# Outline: as §1
# [32] = biological target: Fuc(a1-3)[Gal(b1-4)]GlcNAc
# Outline: as §1
# [33] = biological target: Fuc(a1-3)[Gal(b1-4)]GlcNAc(b1-2)Man
# Outline: as §1
# [34] = biological target: Fuc(a1-3)[Gal(b1-4)]GlcNAc(b1-2)Man(a1-3)[Fuc(a1-3)[Gal(b1-4)]GlcNAc(b1-2)Man(a1-6)]Man(b1-4)GlcNAc(b1-4)GlcNAc
# Outline: as §1
# [35] = biological target: Fuc(a1-3)[Gal(b1-4)]GlcNAc(b1-2)Man(a1-3)[Fuc(a1-3)[Gal(b1-4)]GlcNAc(b1-2)Man(a1-6)]Man(b1-4)GlcNAc(b1-4)[Fuc(a1-6)]GlcNAc
# Outline: as §1
# [36] = biological target: Fuc(a1-3)[Gal(b1-4)]GlcNAc(b1-3)Gal(b1-3)[Fuc(a1-4)]GlcNAc
# Outline: as §1
binder,measurement,setting,value
B1,glycan array binding signal (z-score),[1],-0.323
same,glycan array binding signal (z-score),[2],-0.567
same,glycan array binding signal (z-score),[3],0.764
same,glycan array binding signal (z-score),[4],-0.462
same,glycan array binding signal (z-score),[5],-0.606
same,glycan array binding signal (z-score),[6],-0.091
same,glycan array binding signal (z-score),[7],0.18
same,glycan array binding signal (z-score),[8],1.77
same,glycan array binding signal (z-score),[9],-0.553
same,glycan array binding signal (z-score),[10],-0.413
same,glycan array binding signal (z-score),[11],0.761
same,glycan array binding signal (z-score),[12],0.225
same,glycan array binding signal (z-score),[13],-0.245
same,glycan array binding signal (z-score),[14],-0.204
same,glycan array binding signal (z-score),[15],-0.382
same,glycan array binding signal (z-score),[16],-0.505
same,glycan array binding signal (z-score),[17],-0.333
same,glycan array binding signal (z-score),[18],-0.35
same,glycan array binding signal (z-score),[19],-0.541
same,glycan array binding signal (z-score),[20],0.877
same,glycan array binding signal (z-score),[21],1.09
same,glycan array binding signal (z-score),[22],-0.209
same,glycan array binding signal (z-score),[23],0.51
same,glycan array binding signal (z-score),[24],-0.651
same,glycan array binding signal (z-score),[25],0.258
same,glycan array binding signal (z-score),[26],-0.661
same,glycan array binding signal (z-score),[27],-0.297
same,glycan array binding signal (z-score),[28],-0.295
same,glycan array binding signal (z-score),[29],-1.24
same,glycan array binding signal (z-score),[30],0.203
same,glycan array binding signal (z-score),Fuc(a1-3)GlcNAc,-0.177
same,glycan array binding signal (z-score),[31],0.568
same,glycan array binding signal (z-score),[32],-0.202
same,glycan array binding signal (z-score),[33],-0.392
same,glycan array binding signal (z-score),[34],-0.581
same,glycan array binding signal (z-score),[35],0.093
same,glycan array binding signal (z-score),[36],-0.373
